Measured values taken from article PMC12136788.
The other results are listed elsewhere or left out.

T1: UNK ZnF1-3 (human, UniProt Q9C0B0 31-174)
T1 sequence: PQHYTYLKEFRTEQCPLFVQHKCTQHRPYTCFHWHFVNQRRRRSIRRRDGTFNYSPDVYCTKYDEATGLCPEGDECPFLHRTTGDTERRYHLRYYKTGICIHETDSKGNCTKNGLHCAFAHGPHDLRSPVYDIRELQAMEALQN

B1: chr1:163112212:163112213:-_ENSG00000143248_ENST00000313961|hu_hu|hu_hu_hu_mus_False|1_8 (ssRNA)
RNA: GGGAGUUCUACAGUCCGACGAUCUUUUAUUAUCAGUAAGAGUGAGUUACAUACUAGGCAAAGUAUUGGAUACAAUAAUCAGGAAACAAACACUAUUGGUCCAGAAUUUAAAACUUUAUGAGCGAAGGCUUACAAAUGGAUUUACAACAGAGGAUUGAGCAUCA
B2: chr14:22612544:22612545:+_ENSMUSG00000021770_ENSMUST00000119430|mus_mus|FALSE|FALSE (ssRNA)
RNA: GGGAGUUCUACAGUCCGACGAUCAGCCAAAUGCAACGUAUCCAGGAGCCUGGGACAAAGUAUUCAUUUUCAUUCCAUAACUACUGUAUAUUUAACAACAAACUCAUUACAGAGAGAGAGUCUUCAUCCAAUUAGUCUUUUCAUCAACAGAGGAUUGAGCAUCA
B3: chr6:67234166:67234167:+_ENSMUSG00000036371_ENSMUST00000042990|mus_hu|FALSE|FALSE (ssRNA)
RNA: GGGAGUUCUACAGUCCGACGAUCUGAAGAAUGCAUAAUCUCUGAAAAUUAUGAAAACAUCCCUGCUACCAAUACAUUUCUAAAUACAAAACUGACUACCAUAUUUGUUACUUCUGUGUAGCGGGAGAAGUUCAUUUUUAAAACCAACAGAGGAUUGAGCAUCA
B4: 19470457_19479411_542_3pUTR_ENSMUSG00000028228_ENSMUST00000029885|mouse|control|control (ssRNA)
RNA: GGGAGUUCUACAGUCCGACGAUCGUAUGGAUCUGACUUCCCAAACAGAUCCUUAUUAUCCAGUUUUCUGGCUUCCAUUUCAAACAAUACCACUCUGUUAUCCUUUAUUUCUUCUGCUGAAAUCGUAAUACUCCCUUUCCCUGCCAACAGAGGAUUGAGCAUCA
B5: 176637863_176637983_2568_CDS_ENSG00000165671_ENST00000439151|human|control|control (ssRNA)
RNA: GGGAGUUCUACAGUCCGACGAUCUAAAACAUGUUUCACCACUGCUGUUUCUAUGUCACUUGAAUCCCUGGUUUUCUCAUGCAUAUUGUUCAGUAGUUUUAGACCAUCCACUUUCCCACUUUUAGAAAUGCUGGCCAAAGGAGACAACAGAGGAUUGAGCAUCA
B6: 39339409_39339529_308_3pUTR_ENSG00000214114_ENST00000397572|human|control|control (ssRNA)
RNA: GGGAGUUCUACAGUCCGACGAUCUCUCGUCCUGAGAAAGUGCUCACAGUGCUUUGCAGUAGCCGAGGAGGGUGUUUAGAAUCAUAUAUUUUGGCUUCAGCUUUUAUCUUUGGAGUCUCCUUGAGUCGUGGCUGACUUGAUGUGCAACAGAGGAUUGAGCAUCA
B7: 57535670_57543589_642_3pUTR_ENSG00000140262_ENST00000343827|human|control|control (ssRNA)
RNA: GGGAGUUCUACAGUCCGACGAUCAUGAAGGUGCUUGCCCUCCAGGUCUUGGCCACUGACUGGUACCUGUGAGAGGUGAAGGUGAUCCAACUGGUGUUGAUGGAUUUGACGGAAAACUACUGCUGGUAUGGUCAGGAGAAUAAACAACAGAGGAUUGAGCAUCA
B8: chr9:123603995:123603996:-_ENSMUSG00000025245_ENSMUST00000165754|mus_mus|FALSE|FALSE (ssRNA)
RNA: GGGAGUUCUACAGUCCGACGAUCACAGAAUAAAGCAAUUACAAAUUUAGGAAAAUGUAAUAAUUAUCUAAAGCAAAAACUAUUGAGCCUAGAAUAACUCUAAAAUGUUAUUUUGAGGUCCAAAACUAUGUGUUAAGAACUUAGCAACAGAGGAUUGAGCAUCA
B9: chr1:225611761:225611762:-_ENSG00000143815_ENST00000272163|hu_mus|hu_hu_hu_mus_True|1_78 (ssRNA)
RNA: GGGAGUUCUACAGUCCGACGAUCCCAGGCCAUCGGCCUCUGACCACUUCACCCUCAGCAAAUUUCCUACUUGGCAUUUUCUAAAAUUAGUCUGGCCGCGCUCCGGCGGGAACUCCAGCCACUCCAGGACAGUCACCCGCACAGCAACAGAGGAUUGAGCAUCA
B10: 118046813_118053763_277_CDS_ENSMUSG00000017132_ENSMUST00000017276|mouse|control|control (ssRNA)
RNA: GGGAGUUCUACAGUCCGACGAUCCUUUUUAGGAUCCAUGUUAAAUUUCUUUCUGCCCAUGGCUACCUGUUUGUUCCUCUGCAUGUUUUUCCUUUCCUCUGUGGAUCCCAGGCUUUCAAUUUCAUUAGCAACUUCUGCUAUCUCCAACAGAGGAUUGAGCAUCA
B11: 44840585_44845828_1337_CDS_ENSMUSG00000019849_ENSMUST00000099858|mouse|control|control (ssRNA)
RNA: GGGAGUUCUACAGUCCGACGAUCCUCUCGGAAAACCAUGGGCUCCAGUUCCUCUUUGGUAAGAUCGCAGUGGUAAAUGACACCUGGAGAUAGGAAGGAUGUGAACUGGUAGAAGAUCUCAGAGUCCUUCUUGCGCCCACUGUACAACAGAGGAUUGAGCAUCA
B12: chr11:23187360:23187361:+_ENSMUSG00000020290_ENSMUST00000020538|mus_hu|FALSE|FALSE (ssRNA)
RNA: GGGAGUUCUACAGUCCGACGAUCGCUCACCCAACCAGAUAUUAACUUUAAAGUUUCCCUUUUUACAGUUCGCAUACUUCUAAUCAAUGGUUGCUUUGUAACCAUUUCACCAUUAGCUUGGAUAGCUGCAGAAAUAUUUUCACUCAACAGAGGAUUGAGCAUCA
B13: 73041748_73041868_1190_CDS_ENSMUSG00000016382_ENSMUST00000114059|mouse|control|control (ssRNA)
RNA: GGGAGUUCUACAGUCCGACGAUCAAAGGCCAAGUUCAGUUUGGGGUUUCCGCUGACAACAUCAGCUGGAGUAACGAACUGUCUGCAACCUAAUUUAUCUGCUUGUUGAAGCAUACUUUCGGCUCUCUUUAAAUCAUCAGUUUCCAACAGAGGAUUGAGCAUCA
B14: chr6:30809960:30809961:-_ENSMUSG00000025607_ENSMUST00000048774|mus_hu|FALSE|FALSE (ssRNA)
RNA: GGGAGUUCUACAGUCCGACGAUCACUUGAUGCAGCUUCUUGGGCUUCAUUGAUCCAGCGCUUAACCACAUCAUAGCUUAUCUUCAUCAUGUGCAGGGAAGAUACCAGUGCUGAACUGGAUACACUGGAAACUUUAUCCACAAUCAACAGAGGAUUGAGCAUCA

biological target: T1, UNK ZnF1-3; experiment: nsRBNS (natural sequence RNA bind-n-seq); RBNS binding buffer (assumed for nsRBNS): 25 mM Tris pH 7.5, 150 mM KCl, 3 mM MgCl2, 0.01% Triton X-100, 500 ug/ml BSA, 20 U/ml SUPERase-In, 4 C; UNK is unkempt and MSI1 is Musashi-1; names of the RNAs are library labels; protein concentration not given here; high values mean tight binding

| Binder | binding signal [enrichment R] |
| --- | --- |
| B1 | 0.801 |
| B2 | 0.914 |
| B3 | 1.13 |
| B4 | 0.598 |
| B5 | 0.988 |
| B6 | 0.75 |
| B7 | 1.12 |
| B8 | 0.685 |
| B9 | 1.2 |
| B10 | 0.253 |
| B11 | 0.769 |
| B12 | 0.549 |
| B13 | 0.737 |
| B14 | 0.841 |
